Data published in PubChem BioAssay AID485294 (National Center for Advancing Translational Sciences (NCATS), 2010).
Out of some 370,000 compounds screened, about 150 (0.041%) were called active. This list was built around the results that the source calls inconclusive (neither active nor inactive); the mix of calls is not that of the screen. Calls follow the shape of the dose curve; as a rule, active = well fitted inhibition curve with a large enough effect; inconclusive = small, poorly fitted or top-dose-only effect; inactive = flat fitted curve, though single readings scatter. Potencies of inconclusive entries are left out as doubtful fits.
Also: nearly all actives have a fitted effect of over 25% in size.
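For activity change, negative = inhibition in this document: 0% = no-compound wells and -100% = no-enzyme wells.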
Potency is read from the fitted curve at half-maximal effect; tags tell the direction and shape of the fitted curve.

Each compound was assayed against Beta-lactamase (Escherichia coli (strain K12)) (UniProt P00811) (assay: qHTS Inhibitors of AmpC Beta-Lactamase (assay with detergent)). Conditions: AmpC hydrolysis of nitrocefin, absorbance 480 nm, 0.01% Triton; activity change, negative = inhibition: at 114 µM (top of the series).
Chain of UniProt P00811 (P00811 whole entry, looked up): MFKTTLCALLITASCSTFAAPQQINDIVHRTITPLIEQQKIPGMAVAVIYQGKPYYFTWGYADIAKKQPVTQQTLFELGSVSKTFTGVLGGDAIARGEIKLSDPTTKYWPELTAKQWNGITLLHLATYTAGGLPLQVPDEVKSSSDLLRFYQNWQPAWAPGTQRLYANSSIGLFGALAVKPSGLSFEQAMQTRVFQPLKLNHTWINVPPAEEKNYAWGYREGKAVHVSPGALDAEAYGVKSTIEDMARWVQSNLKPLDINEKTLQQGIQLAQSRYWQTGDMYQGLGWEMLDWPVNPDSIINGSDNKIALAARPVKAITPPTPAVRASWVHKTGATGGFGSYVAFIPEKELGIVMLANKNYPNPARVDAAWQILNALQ
In short: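 20 mM phosphate pH 7.0 + 0.01% (detergent screen) or 0.0001% Triton X-100; 5.3 nM AmpC reagent; cpd preinc 15 min RT; nitrocefin (800 uM stock) to start; A480 q20 s × 4 min; Activity was normalised to no-enzyme and no-compound control wells.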
For `COc1ccc(OC)c(C(=O)NC(CC(N)=O)c2ccc(NC(C)C)c([N+](=O)[O-])c2)c1` (stereo unspecified), the Potency was inconclusive [inhibitor, partial curve].
With `COc1ccc(N2C(=O)CSC2c2ccc([N+](=O)[O-])cc2)cc1` (stereo unspecified) the “activity change, negative = inhibition” value was inactive: -13.6%.
In the case of `O=C(NCCCn1ccnc1)c1ccc(NS(=O)(=O)c2ccc(Cl)c(Cl)c2)cc1`, the Potency is reported as inconclusive [inhibitor, single point].
`CCOC(=O)c1[nH]c(C)c(CCC(=O)Nc2ccc(C(C)=O)cc2)c1C` was tested, and the “activity change, negative = inhibition” value was inactive: 18.5%.
In the case of `CC(=O)Nc1ccc(-c2nnn(CC(=O)Nc3ccc4c(c3)OCO4)n2)cc1Cl`, the Potency is reported as inconclusive [inhibitor, partial curve].
With `CCOC(=O)N1CCN(C2CC(=O)N(c3ccc(Cl)c(Cl)c3)C2=O)CC1` (stereo unspecified) the “activity change, negative = inhibition” value was inactive: -12.4%.
`O=C(Nc1ccc2c(c1)C(=O)NC2=O)c1cccc(C(F)(F)F)c1` was tested, and the Potency was inconclusive [inhibitor, partial curve, poor fit].
With `COC(=O)c1cc(COC(=O)c2ccc(OC)c(S(=O)(=O)N3CCCC3)c2)oc1C` the Potency was inconclusive [inhibitor, full curve, poor fit].
For `Cc1ccc(C2=NN(C(=O)CCC(=O)O)C(c3cccs3)C2)cc1` (stereo unspecified), the “activity change, negative = inhibition” value was inactive: -13.8%.
For `O=C(Nn1c(-c2ccncc2)nc2ccccc2c1=O)c1ccc(Br)cc1`, the Potency was inconclusive [inhibitor, partial curve, poor fit].
`O=S(=O)(NCc1ccccc1)c1ccc(Cl)cc1` was tested, and the Potency was inconclusive [inhibitor, full curve, poor fit].
In the case of `Cc1cccc(NC(=S)N2CC3CC(C2)c2cccc(=O)n2C3)c1C` (stereo unspecified), the Potency is reported as inconclusive [inhibitor, single point].
For `COc1ccccc1C(=O)NNS(=O)(=O)c1ccc(F)cc1`, the Potency was inconclusive [inhibitor, partial curve].
In the case of `CCc1ccccc1NC(=O)Cn1c(=O)n(CCCS(=O)(=O)C2CCCCC2)c(=O)c2ccccc21`, the “activity change, negative = inhibition” value is reported as inactive: -4.02%.
In the case of `COc1cccc(NC(=O)C2CCCN(S(C)(=O)=O)C2)c1` (stereo unspecified), the Potency is reported as inconclusive [inhibitor, full curve, poor fit].
`COc1cc2c(cc1OC)C(COc1ccccc1OC)N(C(=O)C(C)C)CC2` (stereo unspecified) was tested, and the “activity change, negative = inhibition” value was inactive: 2.73%.
In the case of `O=C(CSc1nc2sc3c(c2c(=O)n1-c1ccccc1)CCCC3)N/N=C/c1ccc(C(=O)O)cc1`, the Potency is reported as inconclusive [inhibitor, single point].
With `CC(=O)Nc1ccc(NC(=O)C(C)OC(=O)/C=C/c2cn(-c3ccccc3)nc2-c2cccnc2)cc1` (stereo unspecified) the “activity change, negative = inhibition” value was inactive: -6.03%.
`Cc1ccc(C(=O)Nc2ccc(S(=O)(=O)Nc3cnc4ccccc4n3)cc2)cc1` was tested, and the “activity change, negative = inhibition” value was inactive: -19.2%.
For `CCCCn1c(N)c(-c2nc3ccccc3s2)c2c([N+](=O)[O-])nn(CC)c(=O)c21`, the “activity change, negative = inhibition” value was inactive: 0.174%.
`CCc1ccc(-n2nc3ccc(NC(=O)c4ccc5c(c4)OCO5)cc3n2)cc1` was tested, and the Potency was inconclusive [inhibitor, partial curve, poor fit].
In the case of `COC(=O)c1cc(NC(=O)C2COc3ccccc3O2)ccc1Cl` (stereo unspecified), the Potency is reported as inconclusive [inhibitor, full curve, poor fit].
For `OCCNC(=S)Nc1cc(Cl)cc(Cl)c1`, the Potency was inconclusive [inhibitor, single point].
For `Cn1c(SCC(=O)Nc2ccc(F)cc2)nnc1-c1cccnc1`, the Potency was inconclusive [inhibitor, partial curve].
With `O=C(COC(=O)Cc1ccccc1[N+](=O)[O-])Nc1nnc(-c2ccccc2)o1` the Potency was inconclusive [inhibitor, partial curve].
With `Cc1ccc(S(=O)(=O)NC23CC4CC(CC(C4)C2)C3)cc1` the “activity change, negative = inhibition” value was inactive: 2.7%.
`COc1nc(NCC(C)C)nc(Oc2ccc(OCc3ccccc3)nn2)n1` was tested, and the Potency was inconclusive [inhibitor, single point].
In the case of `Cc1cccc(Nc2ccc(C(=O)N3CCOCC3)cn2)c1`, the “activity change, negative = inhibition” value is reported as inactive: 1.06%.
With `COC(=O)C(C)(N)Cc1ccc(O)cc1` (stereo unspecified) the Potency was inconclusive [inhibitor, full curve, poor fit].
With `Cc1ccc(C)n1-c1c(C(=O)NCC(C)c2ccccc2)sc2ncccc12` (stereo unspecified) the “activity change, negative = inhibition” value was inactive: 21.8%.
For `CCOC(CNC(=O)c1ccc2c(c1)ncn2-c1ccccc1OC)OCC`, the Potency was inconclusive [inhibitor, single point].
In the case of `CC(=O)c1sc2nc(C)c3c(c2c1N)CCCC3`, the “activity change, negative = inhibition” value is reported as inactive: 0.0833%.
In the case of `Cc1cc(-c2ccc(C)c(S(=O)(=O)Nc3ccccc3C(F)(F)F)c2)on1`, the “activity change, negative = inhibition” value is reported as inactive: -9.54%.
With `CC(C)N(Cc1ccccc1)C(=O)c1ccc2c(c1)OCO2` the “activity change, negative = inhibition” value was inactive: -1.04%.
`Cc1c(Nc2nc3ccccc3nc2NS(=O)(=O)c2cccc(Cl)c2)c(=O)n(-c2ccccc2)n1C` was tested, and the “activity change, negative = inhibition” value was inactive: -0.768%.
`CCOC(=O)c1cccc(NC(=O)Cn2c(CC(=O)NC)nc3ccccc32)c1` was tested, and the “activity change, negative = inhibition” value was inactive: -9.64%.
With `C/C(=N\Nc1ccc(C(=O)O)cc1)c1nc2ccccc2n1C` the Potency was inconclusive [inhibitor, partial curve].
`CC1=C(C(=O)OC(C)C)C(c2ccccc2)NC(=O)N1C` (stereo unspecified) was tested, and the “activity change, negative = inhibition” value was inactive: -10.3%.
For `S=c1[nH]nc(-c2cccnc2)o1`, the Potency was inconclusive [inhibitor, partial curve, poor fit].
In the case of `O=C(Cn1cnc2ccccc2c1=O)c1cccs1`, the Potency is reported as inconclusive [inhibitor, full curve, poor fit].
In the case of `COc1cc(SC)ccc1C(=O)N1CCN(c2ccccc2F)CC1`, the “activity change, negative = inhibition” value is reported as inactive: 5.03%.
In the case of `Cc1c(Cl)cccc1NC(=O)CN1C(=O)COc2ccc(S(=O)(=O)N3CCCCCC3)cc21`, the “activity change, negative = inhibition” value is reported as inactive: 3.09%.
With `COc1ccc(CCNC(=O)C2CCCN2C(=O)Nc2ccc(C)cc2)cc1OC` (stereo unspecified) the Potency was inconclusive [inhibitor, full curve].
`Cc1cc([N+](=O)[O-])ccc1NC(=O)CCC(=O)N1CCCCC1` was tested, and the Potency was inconclusive [inhibitor, partial curve, poor fit].
With `Cc1c(Br)c([N+](=O)[O-])nn1CC(=O)Nc1ccc(Cc2ccncc2)cc1` the Potency was inconclusive [inhibitor, single point].
For `O=C(Nc1cc(N2CCOCC2)ncn1)Nc1cccc2ccccc12`, the Potency was inconclusive [inhibitor, full curve].
`CC(=O)c1c(C)[nH]c(C(=O)OCCCCN2C(=O)c3ccccc3C2=O)c1C` was tested, and the Potency was inconclusive [inhibitor, partial curve, poor fit].
With `COc1ccc(CCNC(=O)CSc2ccsc2[N+](=O)[O-])c(OC)c1` the Potency was inconclusive [inhibitor, single point].
`O=C(CC(CC(=O)c1ccc(Br)cc1)c1cccnc1)c1ccc(Br)cc1` was tested, and the Potency was inconclusive [inhibitor, full curve].
In the case of `O=C(NCCOc1ccccc1F)C1CCC(=O)N(CC2CCCCC2)C1` (stereo unspecified), the Potency is reported as inconclusive [inhibitor, full curve, poor fit].
For `Cc1cc(C)c(C#N)c(SCc2ccccc2C)n1`, the Potency was inconclusive [inhibitor, full curve].
With `O=C(OCC(=O)c1ccccc1Br)c1ccccn1` the Potency was inconclusive [inhibitor, partial curve, poor fit].
With `Cc1ccc(NC(=O)Nc2cccnc2)cc1` the Potency was inconclusive [inhibitor, full curve].
For `O=C(NCc1nnc(SCC(=O)N2CCCCC2)o1)c1c(F)cccc1Cl`, the Potency was inconclusive [inhibitor, full curve, poor fit].
`S=C(NCc1ccccn1)Nc1ccc(Br)cc1Cl` was tested, and the Potency was inconclusive [inhibitor, full curve, poor fit].
With `CCc1ccc(/C=C/C(=O)C2C(=O)c3ccccc3C2=O)cc1` the “activity change, negative = inhibition” value was inactive: 1.69%.
In the case of `CCOc1ccc(C2C(C#N)=C(N)Oc3cc(C)n(CCN4CCOCC4)c(=O)c32)cc1OCC` (stereo unspecified), the Potency is reported as inconclusive [inhibitor, full curve].
For `O=C(Nc1ccc2nc(SCCOc3ccccc3)sc2c1)c1cccs1`, the “activity change, negative = inhibition” value was inactive: 24.5%.
With `COc1ccc(-c2cnnn2-c2ccc([N+](=O)[O-])cc2)cc1` the Potency was inconclusive [inhibitor, partial curve, poor fit].
In the case of `CC(c1ccon1)N(C)Cc1cn(C)nc1-c1cccc(Cl)c1` (stereo unspecified), the “activity change, negative = inhibition” value is reported as inactive: -2.54%.
In the case of `CCCc1cc(C(=O)NCc2ccccc2)no1`, the Potency is reported as inconclusive [inhibitor, full curve].
In the case of `O=[N+]([O-])c1cccc(S(=O)(=O)NCCc2cccs2)c1`, the “activity change, negative = inhibition” value is reported as inactive: -5.2%.
`CCCN1C(=O)C(O)(CC(=O)c2ccc(OC)c(OC)c2)c2ccccc21` (stereo unspecified) was tested, and the “activity change, negative = inhibition” value was inactive: 3.27%.
`CCOc1ccc(CCNc2cc(C)nc3ncnn23)cc1OCC` was tested, and the Potency was inconclusive [inhibitor, full curve, poor fit].
In the case of `Cc1ccc(C(=O)Nc2cc([N+](=O)[O-])ccc2F)s1`, the Potency is reported as inconclusive [inhibitor, full curve].
`CCOCCCn1c(SCC(=O)NC(C)C)nc2ccccc2c1=O` was tested, and the Potency was inconclusive [inhibitor, partial curve, poor fit].
For `CCc1ccccc1N(C)C(=O)CCc1nc(-c2ccc(C)cc2)no1`, the Potency was inconclusive [inhibitor, full curve, poor fit].
With `CN1CCCCCC1=NC1=C(C#N)CCCC1` the Potency was inconclusive [inhibitor, full curve, poor fit].
`O=C(Cc1ccccc1)N/N=C/c1cc(Br)c(Br)o1` was tested, and the “activity change, negative = inhibition” value was inactive: -7.6%.
With `Cc1cc(=O)n2[nH]c(-c3ccc(F)cc3)nc2n1` the Potency was inconclusive [inhibitor, full curve, poor fit].
In the case of `CCCN1C=CC(=C/C=C(\C#N)C(=O)OCC)C=C1`, the “activity change, negative = inhibition” value is reported as inactive: -12.8%.
